# According to the supplement of paper PMC10441789:
# The list shows a part of the results. Antibody binding of pooled human sera (four to six donors per pool; dilution not stated) to peptides of the Trypanosoma cruzi antigen TSSA on microarrays. Quantile-normalised fluorescence in arbitrary units, mean of duplicate arrays; higher = more binding. No active / inactive call. The uninfected pools are read here as the healthy donors of the same country. The strongest signals lie near the top of the scale (about 60,000).
# Key:
# Assay in all cases: antibody binding signal (normalised fluorescence) (arbitrary fluorescence units); higher = stronger serum antibody binding to peptide
# [1] = test system: pooled sera of chronic Chagas disease patients, Argentina
# Method: (§1)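 Microarray of 15-residue peptides over residues 30-55 of Trypanosoma cruzi TSSAII, each with 1 to 10 substitutions at naturally variable positions, probed with one serum pool per country.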
# [2] = test system: pooled sera of chronic Chagas disease patients, Bolivia
# Method: as §1
# [3] = test system: pooled sera of chronic Chagas disease patients, Brazil
# Method: as §1
# [4] = test system: pooled sera of chronic Chagas disease patients, Colombia
# Method: as §1
# [5] = test system: pooled sera of chronic Chagas disease patients, Mexico
# Method: as §1
# [6] = test system: pooled sera of chronic Chagas disease patients, USA
# Method: as §1
# [7] = test system: pooled sera of uninfected people, Argentina
# Method: as §1
# [8] = test system: pooled sera of uninfected people, Bolivia
# Method: as §1
# [9] = test system: pooled sera of uninfected people, Brazil
# Method: as §1
# [10] = test system: pooled sera of uninfected people, Colombia
# Method: as §1
# [11] = test system: pooled sera of uninfected people, Mexico
# Method: as §1
# [12] = test system: pooled sera of uninfected people, USA
# Method: as §1
Sequence,antibody binding signal [1],antibody binding signal [2],antibody binding signal [3],antibody binding signal [4],antibody binding signal [5],antibody binding signal [6],antibody binding signal [7],antibody binding signal [8],antibody binding signal [9],antibody binding signal [10],antibody binding signal [11],antibody binding signal [12]
TDNKTATGETPSPPG,432,1540,3190,244,167,7930,107,376,226,119,140,1740
KKAATGGAPSPSGAS,485,173,294,756,420,575,330,148,112,248,87.1,248
KENKAATGETPSQPG,6400,3710,41800,341,333,12600,199,457,233,263,144,292
SGTEKKTATGEAPSP,10600,27500,10700,628,348,18100,183,290,290,182,131,130
KENKTAAGGAPSQSG,204,525,248,2270,270,301,216,107,140,110,82.5,176
PSGKDKKTAAGEAPS,3490,3490,2880,6930,4690,5530,311,218,119,571,75.7,112
GTEKKPAAGGTPSQP,799,199,582,6100,1060,1180,253,851,2750,140,1270,1060
GTDKKTATGEAPSPP,10800,20200,13300,1190,631,19500,195,167,174,123,163,132
TPPSGKENKPATGGT,17600,8070,11400,379,5150,12900,3410,2340,867,563,310,547
ENKPAAGEAPSQSGA,1370,23800,34700,365,299,19200,151,321,190,82.9,93.5,169
GTENKPAAGGTPSPP,43100,2910,4220,1110,1360,531,406,1980,1080,559,249,150
KTATGGTPSQPGASS,459,530,584,2010,396,287,751,141,182,140,1090,147
PSGTDKKTAAGGAPS,1270,571,1970,9380,3320,1780,269,588,165,343,233,255
PSGTEKKAAAGGAPS,12500,557,3520,10700,7220,5200,673,319,346,269,257,383
KDNKPAAGETPSPPG,466,184,17800,349,203,3200,377,440,221,315,423,990
SSTPPSGTDKKPATG,42200,20000,46100,13800,51000,12400,1220,948,370,291,4410,443
GKDKKPAAGGTPSPS,235,173,868,1380,502,532,116,71.5,474,114,76.2,111
GKEKKAAAGGAPSPP,825,246,257,3260,954,1100,96.7,80,113,92.8,88,106
KAAAGETPSQSGASS,174,2560,9270,179,193,284,225,355,154,212,895,182
PSGKDNKAAAGEAPS,4230,1250,7420,9190,5820,10600,378,401,150,158,95.2,141
PSGTEKKAATGEAPS,23800,28400,22400,1060,1350,25100,843,309,335,816,258,400
DNKPATGEAPSQPGA,44500,47800,47500,309,201,42300,886,541,397,274,320,167
SGKDNKTATGGAPSQ,1100,269,679,2630,749,2200,297,166,134,374,109,147
GKDKKAATGEAPSPP,14000,17900,19900,1690,1750,18200,245,110,103,235,95.7,107
GTDKKAATGEAPSQP,23400,22700,42200,2060,659,26300,414,227,203,603,269,176

Sequence,antibody binding signal [1],antibody binding signal [2],antibody binding signal [3],antibody binding signal [4],antibody binding signal [5],antibody binding signal [6],antibody binding signal [7],antibody binding signal [8],antibody binding signal [9],antibody binding signal [10],antibody binding signal [11],antibody binding signal [12]
SGKDKKAATGETPSQ,1120,256,8700,570,591,8340,246,104,99.4,345,81.3,104
PPSGTDNKTAAGETP,19700,27500,42500,478,841,4050,382,641,1060,275,184,253
TDNKPAAGGTPSQSG,965,646,1310,991,281,250,157,648,675,434,497,122
TPPSGKDKKTAAGGT,1770,326,549,2360,38000,1750,117,289,521,168,86.7,109
KENKPATGETPSPSG,41300,31300,34900,339,703,26800,325,570,253,181,1850,2540
EKKTAAGETPSPSGA,892,282,345,624,484,4520,178,1100,131,503,217,1400
KEKKAAAGGTPSQPG,192,187,297,1690,137,1160,133,76.8,1000,122,132,92.2
DNKTATGGTPSQPGA,475,1140,943,2070,411,628,603,180,545,579,1930,189
KEKKAAAGETPSQPG,248,500,20600,143,122,1660,116,96.3,136,179,89.2,156
SGTDKKAATGGTPSQ,1020,385,2980,4830,1140,1130,317,138,629,1230,624,183
TEKKPATGETPSQPG,32500,26900,42200,310,216,22800,222,689,603,252,1620,468
GTENKAAAGEAPSQP,39600,23600,27100,2670,2730,12800,111,463,130,130,92.9,110
TDNKTATGETPSPSG,526,1610,2150,234,197,8560,141,344,257,144,347,2710
KEKKAATGEAPSQSG,12000,11900,20600,162,201,19100,285,83.5,102,167,92.6,134
SGKDKKTATGGAPSQ,1030,286,584,987,704,870,222,91.7,90.8,137,106,91.4
TPPSGKDKKAATGET,1620,403,2020,433,21700,821,315,366,115,427,118,126
TDNKPATGGAPSPPG,1930,16800,5600,375,403,2350,238,956,367,188,264,152
STPPSGKENKAATGE,16200,25400,11300,428,2030,5340,2270,1660,354,1250,210,316
TPPSGTENKAAAGGA,50600,44400,49900,3610,2670,19800,3780,613,978,782,389,2310
GTEKKAAAGETPSQP,1060,1700,29200,684,968,3080,137,861,217,613,149,178
KKAATGETPSPPGAS,344,313,8260,181,144,7170,425,273,87.8,288,70,499
SGKDKKPAAGEAPSP,995,635,6010,988,908,10000,123,110,127,891,92.6,95.3
DKKTATGEAPSPPGA,9250,9510,11300,174,521,18500,155,98.2,149,87.8,290,145
SGTDKKAATGETPSP,1040,3150,13800,1900,240,9540,570,229,230,445,660,1300
KENKTATGGAPSPPG,315,242,262,648,267,706,292,101,122,102,136,133
